Whole data set: some 33,000 sequences, median “E-score (-0.5 to 0.5)” near -0.035, cut for the highest 2% near 0.34. Some of the results follow.
molecular target: T1, Mot3 (UniProt P54785); experiment: PBM E-score (8-mer binding enrichment) (E-score (-0.5 to 0.5)); higher = stronger / more preferred TF binding; most listed sequences are background and not binding sites; details: protein concentration: 200 nM; construct: GST-full length
T1 sequence: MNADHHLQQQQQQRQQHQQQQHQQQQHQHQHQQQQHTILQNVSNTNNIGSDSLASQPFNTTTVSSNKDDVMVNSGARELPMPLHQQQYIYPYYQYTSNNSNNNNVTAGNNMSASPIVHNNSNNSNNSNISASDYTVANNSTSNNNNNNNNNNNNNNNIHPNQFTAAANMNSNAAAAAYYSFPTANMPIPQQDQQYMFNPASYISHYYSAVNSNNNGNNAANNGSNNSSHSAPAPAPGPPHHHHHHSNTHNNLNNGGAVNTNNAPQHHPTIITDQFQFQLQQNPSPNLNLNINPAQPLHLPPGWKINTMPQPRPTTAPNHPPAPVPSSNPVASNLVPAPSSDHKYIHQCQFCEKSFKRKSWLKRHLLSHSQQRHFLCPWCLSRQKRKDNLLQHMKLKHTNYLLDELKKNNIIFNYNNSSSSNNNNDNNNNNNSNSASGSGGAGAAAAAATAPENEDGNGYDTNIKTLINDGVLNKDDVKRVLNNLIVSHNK
Summary of the method: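 The E-score, a modified Wilcoxon-Mann-Whitney statistic, was computed by the Universal PBM Analysis Suite for every ungapped eight-base word pooled with its reverse complement. Scans behind it were normalised with masliner after bound GST-tagged yeast transcription factors were detected with fluorescent anti-GST. The proteins, at about 100-200 nM, had been applied to universal all-10-mer Agilent arrays made double-stranded by primer extension.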

Row | Sequence | PBM E-score
1 | CTATGCCC | -0.264
2 | ATTACGCA | 0.354
3 | AAACTGGG | 0.00591
4 | GCACACCA | 0.143
5 | ATTCTTCC | -0.101
6 | CCCACTCC | -0.263
7 | AAGCCACA | -0.0593
8 | CATCTCCG | 0.0455
9 | CCGCCATA | -0.116
10 | GCACTATA | 0.141
11 | AACGACCC | -0.0298
12 | ATGTCTGC | 0.0123
13 | TCGCGTCA | 0.127
14 | CCCGGAGC | -0.147
15 | GTCCATTA | -0.0171
16 | CATGGAAG | 0.0189
17 | ATGACGGG | -0.146
18 | ATTACATG | 0.435
19 | ACTCTGTA | 0.127
20 | AAAGTAGC | -0.0505
21 | AAGCAATC | -0.0271
22 | ATAGGTTC | 0.271
23 | GTTCGAAA | -0.0506
24 | AAGTTTTA | 0.112
25 | CTTATGAA | -0.068

Row | Sequence | PBM E-score
26 | TACAGTAA | 0.194
27 | CGTTATCA | 0.0865
28 | AACCCCCT | -0.0403
29 | AAGACAGC | -0.123
30 | ATTTTAAC | 0.234
31 | ATTCACCC | -0.106
32 | TCCCGGAA | -0.147
33 | AGCTTCAA | -0.127
34 | AGAATCCT | 0.109
35 | TAGTGTCA | -0.167
36 | TACGTTGA | 0.216
37 | CGCTCTCA | -0.205
38 | AATAGGAT | -0.00596
39 | GGAATTAC | 0.172
40 | CTCGTTTC | -0.105
41 | CCGTAATA | 0.121
42 | CGAGGCAC | 0.411
43 | CGAGAGAA | -0.186
44 | TGTTCGAA | 0.0393
45 | AACATGAA | 0.305
46 | ACTCGTTG | 0.0492
47 | GTGGGGTA | -0.0943
48 | GAGGTTGC | -0.117
49 | AGAACTCC | -0.112
50 | CCCTTCGA | 0.0666

Row | Sequence | PBM E-score
51 | GAAATCGA | -0.0774
52 | GGAACCGA | 0.143
53 | CGCCCGGC | -0.224
54 | AGGGCGTG | -0.0673
55 | CCCTCGTA | 0.0162
56 | AGTATATG | -0.0575
57 | CATTGACA | 0.247
58 | GGAGTACC | 0.0621
59 | ATGAAATC | 0.0905
60 | ACACCCGA | -0.0126
61 | GCTGAACC | -0.201
62 | AAGATTCC | 0.0635
63 | ATATAGTC | 0.0973
64 | ACCACTGA | -0.0487
65 | CGTGTATC | 0.262
66 | CCCCCTAC | -0.198
67 | CCAATGAA | -0.154
68 | CATCACAG | -0.0237
69 | CCCCTAAC | -0.182
70 | CCCGGCGA | -0.196
71 | GAAGCGGA | -0.0807
72 | AGGACTAT | -0.102
73 | GAGCAAAC | 0.0175
74 | CTATCTTC | 0.0112
75 | GCAAACGA | -0.0677

Row | Sequence | PBM E-score
76 | ACGCGAGA | 0.126
77 | AACGCCAT | 0.0328
78 | CCAACGCG | 0.137
79 | CTGCATGA | -0.205
80 | AACGACGT | 0.175
81 | CACGAAGG | 0.182
82 | ATGACCAT | 0.0148
83 | ACTGTAGC | -0.0778
84 | AAAAAAAA | 0.196
85 | CTCTAGCA | -0.0349
86 | CGGCCGTA | -0.199
87 | AATCTTGG | -0.165
88 | AGGAAGGG | -0.333
89 | TCCTCCCA | -0.214
90 | CAGTGAGC | -0.195
91 | CCGCCAGG | 0.196
92 | GATTATCC | -0.148
93 | CCACGGGA | -0.187
94 | CACCCACA | -0.0862
95 | AGGTACAC | 0.366
96 | TAGACCCA | -0.0269
97 | GCCGGGGA | -0.311
98 | GGAGCCAA | -0.117
99 | AACGCGGA | 0.181
100 | GCTACTAA | 0.0556

Row | Sequence | PBM E-score
101 | ATAGCATA | 0.0444
102 | CGCCCCCA | -0.152
103 | ATTAGGGG | -0.204
104 | TGCGACAA | 0.134
105 | GAAGAAGC | -0.174
106 | AGGGGTTG | -0.174
107 | ATGGTACA | -0.043
108 | ACCCGAAC | -0.0659
109 | AACGTCTG | -0.0633
110 | GAAAGCTA | -0.0214
111 | AGACAGTA | -0.0342
112 | AGGGGTAG | -0.149
113 | GATTTTCA | 0.0207
114 | AATCCTAA | 0.0321
115 | TCCACAAA | -0.0932
116 | ACTCAACT | -0.0404
117 | AATATCAT | 0.0978
118 | ACGAGACT | -0.0374
119 | AAGGAGAT | 0.0547
120 | CTAGCAAA | 0.00932
121 | AAGCCACT | -0.172
122 | ACCCCTCC | -0.244
123 | AAGCAGAA | 0.108
124 | CCTAGTGC | 0.0918
125 | AATTGGGC | 0.0644

Row | Sequence | PBM E-score
126 | CCGCAGGC | 0.272
127 | CATTCGAC | -0.0327
128 | ACCCTACA | 0.142
129 | TGAATGCA | 0.0537
130 | CGTTCCCC | -0.0559
131 | CTACGGCC | -0.197
132 | CGGGGCAC | -0.205
133 | CCGGAATC | -0.222
134 | GGAATCCA | -0.238
135 | ACGATTTA | 0.17
136 | ACGTATGA | 0.0587
137 | GGTAACGA | -0.0384
138 | GAAGCTAA | -0.163
139 | AGCTCGAT | -0.261
140 | GATCTGGA | -0.185
141 | ACAGTATA | 0.111
142 | CTGTAAAA | 0.302
143 | GCTACTCC | -0.317
144 | TCTGGCAA | -0.0937
145 | AAAAAATA | 0.0537
146 | AGTTCTCA | -0.0155
147 | TATACCAA | 0.0932
148 | GTATTGAA | 0.122
149 | CGGCGAAG | -0.169
150 | CGCGCGTA | 0.17

Row | Sequence | PBM E-score
151 | AACAAATC | -0.00449
152 | TGTCTCAA | -0.078
153 | GTCTACCA | -0.15
154 | AGGTTATG | 0.112
155 | GCTATCAA | -0.123
156 | GGCATGAA | -0.0416
157 | AATGCAAA | 0.086
158 | GATTAACC | -0.287
159 | CCGCGTCC | -0.105
160 | AATGTAAT | 0.377
161 | AGAACGCC | -0.0172
162 | ACAAACTA | 0.139
163 | ATTCTTAG | -0.0678
164 | GGCATCTA | 0.0154
165 | GGACGTCA | -0.178
166 | CCCCCGTC | -0.167
167 | AATTCTCG | -0.13
168 | ACACCCTG | -0.0541
169 | AGGCACTC | 0.481
170 | CGGCTACA | -0.0371
171 | GCTTTTCA | -0.0394
172 | CTCTCCCC | -0.224
